Source: PubChem BioAssay AID1508642 (National Center for Advancing Translational Sciences (NCATS), 2021)
Among all 43,000 compounds or so, about 200 (0.47%) were called active. About 12% were inconclusive and are not listed. Calls come from the whole dose curve; as a rule, active = well fitted cell-killing curve with a large enough effect; inconclusive = small, poorly fitted or top-dose-only effect, or effect the other way; inactive = flat fitted curve, though single readings scatter. Some of the results follow.

Experiment: Cell viability qHTS assay in S16 Pmp22-F2sN cells; note: nearly all actives have a fitted effect of over 65% in size
Details: S16 Pmp22-F2sN Schwann cells (luciferase reporters placed in the Pmp22 gene) viability, CellTiter-Glo, 24 h; series mostly up to 57.5 µM; activity change, negative = cytotoxicity: at the top concentration
Procedure, shortened: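 Luminescence from CellTiter-Glo, read by CCD camera after a 15 min room-temperature incubation, served as the viability signal. Reporter Schwann cells (S16 Pmp22-F2sN) had been treated with pin-transferred compounds for 24 h at 37C.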
% is set by controls: 0 for no effect and ±100 for the full control effect.

Row | Compound | activity change, negative = cytotoxicity
1 | CNC(=O)C1CCC(Cn2c(=O)c3sccc3n(CC(=O)Nc3ccc(C)cc3C)c2=O)CC1 (stereo not given) | inactive: 4.61%
2 | Cc1cccc(NC(=O)CSc2nc(=O)n(CCN3CCOCC3)c3c2CCC3)c1 | inactive: 7.87%
3 | COc1ccc(-n2c(C)nc3c(cnn3-c3ccc(F)cc3)c2=O)cc1 | inactive: 1.35%
4 | CCCCN(CC)CCCNC(=O)c1c(C)oc2ncnc(N3CCOCC3)c12 | inactive: 20.3%
5 | CCc1nn2c(=O)cc(COC(=O)c3cccc(NC(=O)CCc4ccccc4)c3)nc2s1 | inactive: 16.7%
6 | CCc1ccc(C(=O)c2cn(CC(=O)Nc3ccc4c(c3)OCCO4)c3ccc(F)cc3c2=O)cc1 | inactive: 5.22%
7 | Cc1ccc(NCc2cccn2-c2nnc(N3CCC(C(=O)NCCc4ccc(Cl)cc4)CC3)s2)cc1 | inactive: -10.9%
8 | CCCCc1ccc(-n2nc3cc(C)c(NC(=O)c4ccc(C#N)cc4F)cc3n2)cc1 | inactive: -2.07%
9 | COc1cc2c(=O)n(CCC(=O)NCC3CCCO3)c(=O)n(CC(=O)Nc3ccccc3C)c2cc1OC (stereo not given) | inactive: 0.423%
10 | CCc1nn(CC(=O)NCCc2ccc(OC)cc2OC)c(=O)c2cc3occc3n12 | inactive: -7.63%
11 | CCn1cc(/C=C(\NC(=O)c2ccc(OC)cc2)C(=O)NCCCn2ccnc2)c2ccccc21 | inactive: -6.21%
12 | COc1ccccc1CNC(=O)C1CCN(c2nc3ccc(Cl)cc3[nH]2)CC1 | inactive: -9.19%
13 | Cc1ccc(CNC(=O)CSc2ncc3c(n2)-c2cc(Cl)ccc2N(C)S3(=O)=O)cc1 | inactive: 10.1%
14 | COc1cc2cc(CNc3ccccc3)c(=O)n(CC(=O)Nc3cccc(Cl)c3C)c2cc1OC | inactive: -0.328%
15 | COc1cc(NC(=O)Cn2c(=O)n(CC3CCC(C(=O)NCCc4ccccc4)CC3)c(=O)c3ccccc32)cc(OC)c1 (stereo not given) | inactive: -1.86%
16 | COc1cccc(Cn2cc(C(=O)c3ccccc3)c(=O)c3cc4c(cc32)OCO4)c1 | inactive: -0.611%
17 | COc1ccc(-n2ncc3c(NCCCOC(C)C)ncnc32)cc1 | inactive: -8.26%
18 | CCCCNC(=O)C1CCCN(S(=O)(=O)CCC)C1 (stereo not given) | inactive: 7.62%
19 | CCOc1ccccc1C1CC(=O)Nc2c1c(=O)n(C)c1ncnn21 (stereo not given) | inactive: -1.32%
20 | O=C(CCc1nc(CN2CCN(S(=O)(=O)c3ccc(Br)cc3)CC2)no1)N1CCCCC1 | inactive: -20.1%
21 | COc1ccc2c(c1)c1c(c(=O)n(CCc3ccccc3)c(=O)n1Cc1cccc(Cl)c1)n2C | inactive: -6.94%
22 | COc1ccc(CC(=O)Nc2nc3c(s2)CC(C)CC3)cc1 (stereo not given) | inactive: 3.63%
23 | Cc1ccc(NC(=O)C2CCCN(S(=O)(=O)c3ccc4[nH]c(=O)ccc4c3)C2)cc1Cl (stereo not given) | inactive: -1.64%
24 | CCCn1cc(S(=O)(=O)c2ccc(C)cc2)c(=O)c2cc(F)c(N3CCCC3)cc21 | inactive: 3.06%

Row | Compound | activity change, negative = cytotoxicity
25 | CCOc1ccccc1Nc1ncnc2c1cnn2-c1ccc(C)cc1 | inactive: 2.78%
26 | O=C(NCc1cccc(Cl)c1)c1c2c(nc3ccccc13)C(=O)N(C1CCCCC1)C2 | inactive: 18.2%
27 | CC(=O)Nc1cccc(NC(=O)c2cc3c(=O)n4cccc(C)c4nc3n2C)c1 | inactive: 8.03%
28 | COc1ccc(CCNC(=O)CCc2c(C)nc3c4c(C)cc(C)nc4nn3c2C)cc1OC | inactive: -3.96%
29 | CC(=O)c1c(C)oc2ccc(N(C(=O)Oc3ccccc3)S(=O)(=O)c3ccc(Cl)cc3)cc12 | inactive: -2.21%
30 | Cc1ccc(Cn2nnc3c(=O)[nH]c(C4CCN(C(=O)Cc5ccccc5F)CC4)nc32)cc1 | inactive: -1.72%
31 | Cc1ccc(CNC(=O)C2CCN(S(=O)(=O)N3CCCCC3)CC2)cc1 | inactive: 10.3%
32 | CCc1cccc(NS(=O)(=O)c2c(C)[nH]c(=O)[nH]c2=O)c1 | inactive: 1.47%
33 | CCOc1ccccc1Nc1nc2ccccc2c2nncn12 | inactive: 0.164%
34 | COc1cccc2c1cc1c(=O)n(CC(=O)N3CCN(c4cccc(C)c4C)CC3)nc(C)n12 | inactive: 15.8%
35 | COc1ccc(OCC(=O)Nc2ccc(-c3nc4cc(C)cc(C)c4o3)cc2)cc1 | inactive: -23%
36 | CC1CCN(S(=O)(=O)c2ccc3c(c2)CCN3C(=O)Nc2ccccc2Br)CC1 | inactive: 6.86%
37 | COc1ccc2c(c1)cc(CNc1ccc(OC)c(OC)c1)c(=O)n2CC(=O)Nc1ccccc1C | inactive: 7.32%
38 | CCN(CC)c1ccc(NC(=O)c2cccn2-c2nnc(N3CCCCC3)s2)c(C)c1 | inactive: -18.3%
39 | Cc1ccc(S(=O)(=O)N2CCN(C(=O)c3cc(-c4ccc(Br)cc4)n[nH]3)CC2)c(C)c1 | inactive: -16.6%
40 | Cc1ccc(NC(=O)C(Cc2ccccc2)NS(=O)(=O)c2ccc3c(c2)c(=O)n(C)c(=O)n3C)c(C)c1 (stereo not given) | inactive: 14.4%
41 | Cc1c(Cl)cccc1-n1ncc(C(=O)N2CCN(c3ncccn3)CC2)c1C1CCN(C(=O)OC(C)(C)C)CC1 | inactive: -18.6%
42 | COc1cccc(NC(=O)CCC(=O)N2Cc3ccccc3Oc3ncccc32)c1 | inactive: 8.38%
43 | CCCOc1ccc(CNC(=O)CCCn2ncn3c(cc4sc(CC)cc43)c2=O)cc1 | inactive: -11.5%
44 | Cc1ccc(-n2cc(-c3ccccc3)c3c(N4CCCCC4)ncnc32)cc1 | inactive: -1.62%
45 | CC(C)OC(=O)c1cccc(NC(=O)Cn2nnc3sc4c(c3c2=O)CCCC4)c1 | inactive: 1.38%
46 | Cc1cccc(Nc2nnc(-c3ccc(C)c(S(=O)(=O)N4CCCCC4)c3)c3ccccc23)c1 | inactive: -3.36%
47 | Cc1ccc(CNC(=O)CSc2nc3ccsc3c(=O)n2Cc2ccccc2F)cc1 | inactive: -8.34%
48 | COc1ccc(C)cc1NC(=O)C(=O)NCC(c1cccnc1)N1CCc2ccccc21 (stereo not given) | inactive: -14%

Row | Compound | activity change, negative = cytotoxicity
49 | COc1ccc(NC(=O)CSc2nccn2Cc2ccc3c(c2)OCO3)cc1 | inactive: 0.404%
50 | O=C1CC(c2ccccc2)Sc2ccccc2N1Cc1ccc(F)cc1 (stereo not given) | inactive: -0.862%
51 | Cc1ccc(-n2c3c(cc(C(=O)Nc4ccccc4C(N)=O)c2=O)C(=O)CC(C)(C)C3)cc1 | inactive: -0.0224%
52 | CN(C)CCNC(=O)CN1C(=O)COc2ccc(S(=O)(=O)N3CCCC3)cc21 | inactive: 3.13%
53 | CCOc1ccccc1NC(=O)c1c(NC(=O)COc2ccccc2)sc2c1CCCC2 | inactive: 7.55%
54 | COc1ccc(C2=Nc3ccccc3NC(c3cccs3)=N2)cc1 | inactive: -7.33%
55 | COc1ccccc1NC(=O)Cn1c(SCC(=O)Nc2ccc(F)cc2)nc2ccccc21 | inactive: -0.3%
56 | Cc1nc2ccn(Cc3ccccc3)c(=O)c2cc1C(=O)N1CCN(c2ccc(F)cc2)CC1 | inactive: 11.5%
57 | COc1cccc(CCNC(=O)c2c(O)nc3c(C)cccn3c2=O)c1 | inactive: 11.8%
58 | CC(Sc1nnc2ccc3ccccc3n12)C(=O)Nc1ccc(Cl)cc1 (stereo not given) | inactive: 19.2%
59 | COCCc1nn2c(=O)cc(COC(=O)C(c3ccccc3)c3ccccc3)nc2s1 | inactive: -9.34%
60 | CCOC(=O)c1cnc2cc(-c3ccc(OCC)cc3)nn2c1-c1ccccc1 | inactive: -1.63%
61 | Cc1cc(NC(=O)n2ncc3c(C)cccc32)ccc1Br | inactive: 13.2%
62 | CCCN1CCN(CCCNC(=O)c2ccc3nc(Cc4ccccc4)oc3c2)CC1 | inactive: 1.04%
63 | CCCCN1CC(c2nc3ccccc3n2CCCCOc2cccc(C)c2C)CC1=O (stereo not given) | inactive: -19%
64 | CCOc1ccc(CN(CCc2ccc3c(c2)OCO3)Cc2cc(OC)c(OC)cc2OC)cc1 | inactive: -23.1%
65 | COc1ccc2c(CNCCc3cccs3)c(C(=O)O)n(Cc3ccc(F)cc3Cl)c2c1 | inactive: -19.3%
66 | CCC(Sc1nnc2c3ccccc3n(CC)c2n1)C(=O)Nc1nnc(C(C)C)s1 (stereo not given) | inactive: 2.72%
67 | COc1ccc(-c2cc3nc(C4CCN(C(=O)OC(C)(C)C)CC4)c(C(=O)Nc4cc(C)cc(C)c4)cn3n2)cc1 | inactive: -2.27%
68 | Cn1c(=O)cc(SCC(=O)N2CCN(c3ccccc3F)CC2)c2ccccc21 | inactive: -16.4%
69 | Cc1cc(C)cc(NC(=O)CCCc2nc(-c3ccco3)no2)c1 | inactive: -4.83%
70 | Cc1cc(-n2c(C)nc3ccccc3c2=O)ccc1NC(=O)c1ccccc1[N+](=O)[O-] | inactive: 4.15%
71 | COc1ccc(C)cc1NC(=O)c1cc(S(=O)(=O)N2CCCCC2)c[nH]1 | inactive: -0.109%
72 | COc1ccc(OC)c(NC(=O)[C@H](CSCc2ccccc2)N2Cc3ccccc3C2=O)c1 | inactive: -6.95%

Row | Compound | activity change, negative = cytotoxicity
73 | CCOC(=O)c1cc(OC(=O)c2ccccc2Cl)n(-c2ccccc2)n1 | inactive: 1.8%
74 | Cc1nn2c(=O)cc(COC(=O)c3ccccc3NC(=O)COc3ccccc3C)nc2s1 | inactive: 3.9%
75 | Cc1ccc(SCc2nc(-c3ccc(C(=O)NCCc4ccc(Cl)cc4)cc3)oc2C)cc1 | inactive: 4.07%
76 | Cc1ccccc1NC(=O)Cn1c(=O)n(Cc2ccccc2)c(=O)c2c(C)c(C)sc21 | inactive: 25.5%
77 | Cc1ccc(CNC(=O)Cn2c(=O)n(-c3ccc(C)cc3)c(=O)c3c2c2cc(C)ccc2n3C)cc1 | inactive: 12.5%
78 | COC(=O)c1cc2occc2n1CC(=O)Nc1ccc(N(C)C)cc1 | inactive: 7.48%
79 | COC(=O)c1c(N)n(-c2ccc(OC)c(OC)c2)c2nc3ccccc3nc12 | inactive: 1.04%
80 | N#Cc1nc(-c2ccc(COc3ccccc3)o2)oc1N1CCCCC1 | inactive: -0.567%
81 | Cc1ccc(CNC(=O)C(=O)NCC(c2ccco2)S(=O)(=O)c2ccccc2)cc1 (stereo not given) | inactive: 11.8%
82 | CCSc1nc(-c2ccccc2F)nc2c1Cc1c(CO)cnc(C)c1O2 | inactive: -2.28%
83 | COc1ccc(CCNC(=O)C(C)n2c(=O)cc(-c3ccccc3)c3c(C)nn(C)c32)cc1OC (stereo not given) | inactive: 2.67%
84 | CCC(=O)N1CCc2cc(CNC(=O)c3ccc(F)cc3)ccc21 | inactive: 23.8%
85 | COc1cccc(N2CCN(C(=O)c3nn(C)c4c3CSc3ccc(C)cc3-4)CC2)c1 | inactive: 12%
86 | Cc1ccc(-c2nc3sccn3c2Nc2ccc(C)c(C)c2)cc1 | inactive: -22.5%
87 | CC1CCN(c2nc3ccc(C(=O)N4CCN(c5ccccc5)CC4)cc3s2)CC1 | inactive: -1.67%
88 | CCOc1ccc(N(CC)C(=O)c2cc3c(s2)-c2ccccc2OC3)cc1 | inactive: -15.8%
89 | CCN(C(=O)c1cn(CC)c(=O)c2cc(OC)c(OC)cc12)c1ccccc1F | inactive: 5.74%
90 | Cc1cccc(NC(=O)C(=O)NCCc2csc(-c3ccc(F)cc3)n2)c1C | inactive: 10.4%
91 | Cc1cc(C)c2c(=O)cc(CSc3n[nH]c(C)n3)[nH]c2c1 | inactive: 14.5%
92 | COc1ccc(CCC(=O)NC2CC(=O)N(c3ccc(OC)cc3)C2)cc1 (stereo not given) | inactive: 3.6%
93 | CCC(C(=O)Nc1cc(F)ccc1F)n1nc(C)c2c(C)n(-c3ccc(C)cc3)nc2c1=O (stereo not given) | inactive: -17%
94 | COc1ccc(NC(=O)CN2C(=O)c3cccnc3Sc3ccccc32)cc1OC | inactive: -17.1%
95 | CCOC(=O)c1ccc(NC(=O)C2=C(C)Nc3nc(CCCO)nn3C2c2ccc(OC)cc2)cc1 (stereo not given) | inactive: -4.03%
